These are yes or no findings as the source states them, for the method shown. Binding seen in cells or lysates may run through a third protein. Some results given as binding are weak or reduced against the parent protein; the word gives no strength. For part of these data: Sequences can lack the tags named with a protein.
Experiments:
[1] = biological target: FLAG-CAMDI (Coiled-coil protein Associated with Myosin II and DISC1) (mouse) (UniProt E9Q8Q6); assay: co-IP; tagged proteins co-transfected in cells (SH-SY5Y named for Fig 5A,B); NP-40 lysis buffer (20 mM Tris-HCl pH 7.2, 2 mM EDTA, 0.5% NP-40, 8% sucrose, 80 mM dithiothreitol); protein A- or G-sepharose; immunoblot
[2] = biological target: endogenous KIBRA (mouse brain) (mouse (endogenous in mouse brain)) (UniProt Q5SXA9); assay: co-IP; endogenous proteins, P56 mouse brain lysate, WT and CAMDI KO mice; IP-IB with the indicated antibodies
DsRed-KIBRA (mouse) = DsRed-KIBRA (mouse) (UniProt Q5SXA9); assay: co-IP; tagged proteins co-transfected in cells (SH-SY5Y named for Fig 5A,B); NP-40 lysis buffer (20 mM Tris-HCl pH 7.2, 2 mM EDTA, 0.5% NP-40, 8% sucrose, 80 mM dithiothreitol); protein A- or G-sepharose; immunoblot

By UniProt entry, the sequences of proteins in these tests, tags left out. Where a name states a change or a piece, a line headed by the entry shows the natural chain unless it says otherwise.
UniProt Q5SXA9: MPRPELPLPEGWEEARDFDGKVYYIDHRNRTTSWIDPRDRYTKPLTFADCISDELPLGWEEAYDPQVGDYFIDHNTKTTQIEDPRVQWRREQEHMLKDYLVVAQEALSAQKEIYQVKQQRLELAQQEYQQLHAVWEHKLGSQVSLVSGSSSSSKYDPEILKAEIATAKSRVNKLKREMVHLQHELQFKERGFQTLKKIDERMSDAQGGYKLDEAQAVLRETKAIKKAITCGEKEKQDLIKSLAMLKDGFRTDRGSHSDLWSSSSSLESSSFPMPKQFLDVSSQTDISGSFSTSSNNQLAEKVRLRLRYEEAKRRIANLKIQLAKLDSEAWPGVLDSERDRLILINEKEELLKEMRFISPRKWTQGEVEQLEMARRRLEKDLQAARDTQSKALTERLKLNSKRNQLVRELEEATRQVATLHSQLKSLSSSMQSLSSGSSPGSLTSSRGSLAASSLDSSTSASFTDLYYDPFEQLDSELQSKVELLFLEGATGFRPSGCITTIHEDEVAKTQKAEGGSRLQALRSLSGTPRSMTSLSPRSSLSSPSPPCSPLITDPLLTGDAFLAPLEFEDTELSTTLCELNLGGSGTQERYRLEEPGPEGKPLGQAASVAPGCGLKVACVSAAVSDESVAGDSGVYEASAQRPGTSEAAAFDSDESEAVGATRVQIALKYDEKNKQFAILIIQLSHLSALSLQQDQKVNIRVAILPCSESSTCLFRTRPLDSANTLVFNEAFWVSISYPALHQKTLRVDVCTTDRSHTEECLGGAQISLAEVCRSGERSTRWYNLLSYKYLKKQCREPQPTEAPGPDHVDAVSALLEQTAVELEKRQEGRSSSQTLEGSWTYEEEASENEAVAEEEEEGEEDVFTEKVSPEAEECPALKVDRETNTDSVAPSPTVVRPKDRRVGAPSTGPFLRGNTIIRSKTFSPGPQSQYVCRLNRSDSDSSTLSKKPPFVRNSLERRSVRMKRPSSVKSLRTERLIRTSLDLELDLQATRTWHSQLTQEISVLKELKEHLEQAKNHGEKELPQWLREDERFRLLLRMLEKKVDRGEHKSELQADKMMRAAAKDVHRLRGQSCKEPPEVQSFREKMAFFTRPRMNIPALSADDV

Row | Molecule | binding [1] | further results
1 | KIBRA-HA (kidney and brain expressed protein), full (from UniProt Q5SXA9 1-1104) | binds | 
2 | KIBRA-HA deletion mutant (990-1,104 amino acids deletion) (from UniProt Q5SXA9 1-989) (domain or fragment) | no binding | 
3 | endogenous CAMDI (mouse brain) (from UniProt E9Q8Q6 1-1531) |  | binding [2]: binds
4 | HA-tagged CAMDI first coiled-coil domain (CC1, 576-706) (domain or fragment, UniProt E9Q8Q6 576-706) EQLQSLKEFYLTEIPWKDEDDAVVKCQSNSAERKWQLFLKKSFLTQDLSLEFLNLINMAKENEILNVKNEMHIMENIMEKQTNGREELSHLRVAWYLKAIEGKPAREQWEMFKEKLTKTTHSVKLLHEVLM |  | binding (DsRed-KIBRA (mouse)): binds
5 | EGFP-Rab11a wild type (protein, UniProt P62494 1-216) MGTRDDEYDYLFKVVLIGDSGVGKSNLLSRFTRNEFNLESKSTIGVEFATRSIQVDGKTIKAQIWDTAGQERYRAITSAYYRGAVGALLVYDIAKHLTYENVERWLKELRDHADSNIVIMLVGNKSDLRHLRAVPTDEARAFAEKNGLSFIETSALDSTNVEAAFQTILTEIYRIVSQKQMSDRRENDMSPSNNVVPIHVPPTTENKPKVQCCQNI | binds | 
6 | EGFP-Rab11a dominant active (Q70L) (protein, UniProt P62494 1-216) MGTRDDEYDYLFKVVLIGDSGVGKSNLLSRFTRNEFNLESKSTIGVEFATRSIQVDGKTIKAQIWDTAGLERYRAITSAYYRGAVGALLVYDIAKHLTYENVERWLKELRDHADSNIVIMLVGNKSDLRHLRAVPTDEARAFAEKNGLSFIETSALDSTNVEAAFQTILTEIYRIVSQKQMSDRRENDMSPSNNVVPIHVPPTTENKPKVQCCQNI | binds | 

Source: article PMC6857912
